PubChem BioAssay AID686979 (National Center for Advancing Translational Sciences (NCATS), 2013)
Out of some 420,000 compounds screened, about 50,000 (12%) were called active. The shares of active, inactive and inconclusive entries below differ from those in the screen. Calls follow the shape of the dose curve; as a rule, active = well fitted inhibition curve with a large enough effect; inconclusive = small, poorly fitted or top-dose-only effect; inactive = flat fitted curve, though single readings scatter. No potency is given beside an inconclusive call; the fits are too rough.

Assay: qHTS for Inhibitors of human tyrosyl-DNA phosphodiesterase 1 (TDP1): qHTS in cells in presence of CPT; also: nearly all actives have a fitted effect of over 55% in size
Conditions: chicken DT40 Tdp1-/-;hTDP1 cells + 20 nM CPT, ATP luminescence, 48 h; activity change, negative = growth inhibition: at 46.2 µM (top of the series) unless noted
Procedure, shortened: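 Chicken DT40 Tdp1-/- cells stably complemented with human TDP1 were seeded at 400 cells/well in medium containing 20 nM camptothecin, exposed to pin-transferred compounds, and grown at 37 °C for at least 48 hr. Viability was read as ATP luminescence.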
% is scaled to controls: 0 for no effect and ±100 for the full control effect; potency is read from the fitted curve at half-maximal effect; tags tell the direction and shape of the fitted curve.

**Q.** With `COCCCNC(=O)c1c(N)n(-c2cccc(S(N)(=O)=O)c2)c2nc3ccccc3nc12` as the molecule, how does the Potency read?
**A.** The Potency was inconclusive [inhibitor, single point].

**Q.** For `COC(=O)c1ccccc1-c1ccc(C(c2c(C)[nH][nH]c2=O)c2c(C)[nH][nH]c2=O)o1`, which Potency is on record?
**A.** The Potency was inconclusive [inhibitor, single point].

**Q.** With `CN(Cc1ccccc1)C(=O)[C@@H]1CCCN1C(=O)[C@@H]1CCCN1C(=O)c1cccc2ccccc12` as the molecule, how does the Potency read?
**A.** Its Potency is inconclusive [inhibitor, single point].

**Q.** For `CCn1c2ccccc2c2nnc(SCc3ccccc3)nc21`, which Potency is on record?
**A.** The Potency was inconclusive [inhibitor, single point].

**Q.** With `CN(C)CCN(Cc1cc2cc3c(cc2[nH]c1=O)OCCO3)C(=S)NCC1CCCO1` (stereo unspecified) as the molecule, how does the Potency read?
**A.** The Potency was inconclusive [inhibitor, partial curve].

**Q.** With `CCc1nnc(NC(=O)C2CCCN(C(=O)c3ccc(Cl)cc3)C2)s1` (stereo unspecified) as the molecule, how does the Potency read?
**A.** Its Potency is inconclusive [inhibitor, single point].

**Q.** With `C[C@H](CO)N1C[C@H](C)[C@@H](CN(C)Cc2ccc(Cl)c(Cl)c2)OCc2cnnn2CCCC1=O` as the molecule, how does the Potency read?
**A.** The Potency was inconclusive [inhibitor, single point].

**Q.** Which Potency does the source give for `CCCn1c(=O)c2ccccc2n2c(SCC(=O)N3CCc4ccccc4C3)nnc12` here?
**A.** Its Potency is inconclusive [inhibitor, partial curve].

**Q.** For `COc1ccc(NC(=S)N(CCc2c(C)[nH]c3ccc(C)cc23)Cc2cccnc2)cc1`, which Potency is on record?
**A.** Its Potency is inconclusive [inhibitor, partial curve].

**Q.** For `O=C(NCCN1CCOCC1)c1ccccc1N1C(=O)[C@@H]2Cc3c([nH]c4ccccc34)C(c3ccc(F)cc3)N2C1=O` (stereo partly specified), which Potency is on record?
**A.** The Potency was active: 14.6 µM.

**Q.** Which Potency does the source give for `CCOc1cc(/C=N/NC(=O)CN2CCCCC2)ccc1OCc1ccc(Cl)cc1` here?
**A.** Its Potency is inconclusive [inhibitor, single point].

**Q.** Which Potency does the source give for `CCOc1ccc(S(=O)(=O)N2CCN(C(=O)c3ccc(C)c(S(=O)(=O)N4CCOCC4)c3)CC2)cc1` here?
**A.** The Potency was active: 25.9 µM.

**Q.** With `CCCC(=O)N(c1ccc2oc(C)c(C(C)=O)c2c1)S(=O)(=O)c1ccc(C)c([N+](=O)[O-])c1` as the molecule, how does the Potency read?
**A.** Its Potency is active: 18.4 µM.

**Q.** Which Potency does the source give for `COc1ccc(-c2nc3cnc(Nc4cccc(OC)c4)nc3n(C)c2=O)cc1` here?
**A.** The Potency was inconclusive [inhibitor, single point].

**Q.** For `Cc1ccc(S(=O)(=O)N2[C@@H](c3cccc(Cl)c3)C(C(=O)O)=CC[C@H]2c2ccc(Cl)c(Cl)c2)cc1`, which Potency is on record?
**A.** Its Potency is inconclusive [inhibitor, single point].

**Q.** Which “activity change, negative = growth inhibition” value does the source give for `CS(=O)(=O)n1nc(NCc2cccs2)nc1NCc1cccs1` here?
**A.** The value was inactive: 18.8%.

**Q.** Which “activity change, negative = growth inhibition” value does the source give for `OC1(c2ccccc2)CC(c2ccccc2)c2ccccc2O1` (stereo unspecified) here?
**A.** The value was inactive: -25%.

**Q.** Which Potency does the source give for `CCC1(C)Cc2c(sc3[nH]c(=S)n(Cc4ccccc4)c(=O)c23)CO1` (stereo unspecified) here?
**A.** The Potency was inconclusive [inhibitor, single point].

**Q.** For `O=C(Nc1ccc(Nc2ccccc2)cc1)N1CCOCC1`, which Potency is on record?
**A.** The Potency was inconclusive [inhibitor, single point].

**Q.** Which Potency does the source give for `Cc1sc(C(C2C(=O)CC(C)(C)CC2=O)C2C(=O)CC(C)(C)CC2=O)cc1[N+](=O)[O-]` here?
**A.** The Potency was inconclusive [inhibitor, single point].

**Q.** For `O=C(NN1C(=O)CSC1=S)C(=O)NN1C(=O)CSC1=S`, which Potency is on record?
**A.** Its Potency is inconclusive [inhibitor, full curve].

**Q.** With `CCN(CC)S(=O)(=O)c1ccc(N2CCOCC2)c(NC(=O)c2ccc3ccccc3c2)c1` as the molecule, how does the Potency read?
**A.** The Potency was inconclusive [inhibitor, single point].

**Q.** Which “activity change, negative = growth inhibition” value does the source give for `COc1ccc(CCNC(=O)COc2ccc(-c3ccc(C#N)cc3)cc2)cc1` here?
**A.** The value was inactive: -12.1%.

**Q.** With `O=S(=O)(NCCc1nnc2ccc(SCc3ccc(C(F)(F)F)cc3)nn12)c1ccccc1` as the molecule, how does the Potency read?
**A.** The Potency was active: 14.6 µM.

**Q.** With `COc1ccc(S(=O)(=O)NC2CCCCCC2)cc1C(N)=O` as the molecule, how does the “activity change, negative = growth inhibition” value read?
**A.** Its value is inactive: -19%.

**Q.** Which Potency does the source give for `COc1ccc(C(C(=O)NC2CCCC2)N(C(=O)c2snc(C(N)=O)c2N)c2cc(C)ccc2OC)cc1OC` (stereo unspecified) here?
**A.** The Potency was inconclusive [inhibitor, partial curve].

**Q.** For `C[C@@H]1CN([C@H](C)CO)C(=O)CCCn2nncc2CO[C@@H]1CN(C)S(=O)(=O)c1cccc(C#N)c1`, which “activity change, negative = growth inhibition” value is on record?
**A.** Its value is inactive: -19.4%.

**Q.** With `COc1ccc(NC(=O)CC2C(=O)N(c3cccc(OC)c3)C(=O)N2Cc2ccco2)cc1` (stereo unspecified) as the molecule, how does the “activity change, negative = growth inhibition” value read?
**A.** The value was inactive: -7.96%.

**Q.** With `CC(C)c1nnc(NC(=O)CCC(=O)N2CCN(Cc3ccc(F)cc3)CC2)s1` as the molecule, how does the Potency read?
**A.** Its Potency is inconclusive [inhibitor, single point].

**Q.** Which Potency does the source give for `Cc1sc2ncnc(NCC(c3ccccc3)N(C)C)c2c1C` (stereo unspecified) here?
**A.** The Potency was inconclusive [inhibitor, single point].

**Q.** For `COc1cc(C2NC(=O)C(C#N)=C(S)N2c2ccc(C)cc2)ccc1OC(C)C` (stereo unspecified), which Potency is on record?
**A.** Its Potency is inconclusive [inhibitor, single point].

**Q.** For `O=C(CNC(=O)c1[nH]cnc1C(=O)NC(c1ccccc1)c1ccccc1)OCc1ccccc1`, which Potency is on record?
**A.** The Potency was inconclusive [inhibitor, single point].

**Q.** Which Potency does the source give for `CC(C)N(CCO)Cc1nc(N2CCOCC2)c2cc(Cl)ccc2n1` here?
**A.** The Potency was inconclusive [inhibitor, single point].

**Q.** For `CCN(CC)C(=O)Cn1nc(-c2ccccc2O)nc1SCC(=O)Nc1ccc(OC)cc1`, which “activity change, negative = growth inhibition” value is on record?
**A.** Its value is inactive: -22.4%.

**Q.** For `O=S(=O)(N/N=C\c1c(F)cccc1Cl)c1ccc(Cl)cc1`, which Potency is on record?
**A.** Its Potency is active: 13 µM.

**Q.** With `CC(=O)Nc1ccc(NC(=O)C(=O)c2cn(CC(=O)N3CCCC3)c3ccccc23)cc1` as the molecule, how does the “activity change, negative = growth inhibition” value read?
**A.** Its value is inactive: 0.429%.

**Q.** With `S=c1[nH]nc(Cc2n[nH]c(=S)n2-c2ccccc2)n1-c1ccccc1` as the molecule, how does the “activity change, negative = growth inhibition” value read?
**A.** Its value is inactive: -8.92%.

**Q.** For `CCOc1ccc(Cl)cc1-c1cc(C(=O)Nc2ccc(OC)nc2)[nH]n1`, which Potency is on record?
**A.** Its Potency is inconclusive [inhibitor, single point].

**Q.** For `COCCNC(=O)C1CCC(CNS(=O)(=O)c2ccc3c(c2)CC(C)N3C(C)=O)CC1` (stereo unspecified), which “activity change, negative = growth inhibition” value is on record?
**A.** Its value is inactive: -9.41%.

**Q.** For `COc1ccc(Cl)cc1NC(=O)CN(C)C(=O)CCC(=O)c1cc(C)sc1C`, which Potency is on record?
**A.** Its Potency is inconclusive [inhibitor, partial curve, poor fit].

**Q.** Which Potency does the source give for `O=C(C1COc2ccccc2O1)N1CCN(c2nc3c(F)cccc3s2)CC1` (stereo unspecified) here?
**A.** Its Potency is inconclusive [inhibitor, single point].
